{"source": "PubChem BioAssay AID938", "about": "(National Center for Advancing Translational Sciences (NCATS), 2007)", "note": "Values joined by “and” are separate entries in the source; they are usually repeats but may differ in a detail not shown here. Identical values can stand only once. In all, about 73,000 compounds went through this assay and about 1,800 (2.5%) were called active. Inconclusive means that the source gave no clear call. Such entries were picked first, then a sample of the others. Calls come from the whole dose curve; as a rule, active = well fitted activation curve with a large enough effect; inconclusive = small, poorly fitted or top-dose-only effect; inactive = no such curve, though single readings can be large or run the other way. Potencies beside an inconclusive call are fits to weak or partial responses and may not hold up. Potency is the fitted concentration of half-maximal effect; tags give direction and shape of the fitted curve.", "data": [{"assay": "qHTS Assay for Agonists of the Thyroid Stimulating Hormone Receptor: Activators of Intracellular cAMP Concentrations in Parental HEK 293; note: nearly all actives have a fitted effect of over 55% in size; for activation: % of control where 0% means no effect", "details": "parental HEK293 CNG cAMP sensor, membrane potential fluorescence; activation: at 57.1 µM (top of the series)", "excerpt": "NIH Chemical Genomics Center [NCGC]\nNIH Molecular Libraries Screening Centers Network [MLSCN]\nPI Name: Dr. Marvin Gershengorn\nThis cell based assay utilized a cyclic nucleotide gated ion channel (CNG) as a biosensor for cAMP induction. HEK 293 cells stably expressing the modified CNG were purchased from BD biosciences (http://www.atto.com/products/actone/features_benefits.shtml) . Stimulation of cAMP production causes the CNG to open and subsequent membrane depolarization to occur. A fluorescent membrane potential dye (BD biosciences) was utilized to detect cAMP stimulation in cells.\nThe cells were maintained in DMEM medium (Invitrogen) containing 10 % FBS (Hyclone), 100 units/ml Penicillin, 100 ug/ml Streptomycin (Invitrogen), and 250 ug/ml Geneticin (Invitrogen) and 1 ug/ml Puromycin (Invitrogen) at 37C in 5% CO2. This assay was used as a counterscreen to \"qHTS Assay for Agonists of the Thyroid Stimulating Hormone Receptor\", to control for compounds signaling through endogenous receptors and other targets of HEK 293 cells.\nNCGC Assay Protocol Summary:\nHigh Throughput Screening. Freshly passaged cells were dispensed into 1536-well assay plates at 4 ul/well in DMEM containing phenol red (Invitrogen), 10% FCS (Hyclone), and 100 units/ml Penicillin, 100 ug/ml Streptomycin (Invitrogen) and incubated at 37 C with 5% CO2 for 20 to 36 hrs before the robotic screening. The screen was initiated by addition of 4 ul/well membrane potential dye containing 100 uM RO 20-1724 (Sigma Aldrich), followed by 60 min incubation at room temperature to allow for dye equilibration across the cell membrane. 23 nl/well compound or control was then added to the assay plates, which were incubated for additional 30 min before reading a Envision fluorescence plate reader (Perkin Elmer) in bottom-read mode for fluorescence intensity (emission at 590 nm).\nKeywords: cAMP, CNG Ion Channel, quantitative high throughput screening, qHTS, HTS, probe identification, CNG, cAMP, cyclic nucleotide gated ion channel PubChem", "values": [{"smiles": "Clc1cc(Cl)c(-c2cc(Cl)c(Cl)cc2Cl)cc1Cl", "activation": "inconclusive: 32.2% [activator]"}, {"smiles": "CCOC(=O)c1c(N)n(Cc2ccccc2)c2nc3ccccc3nc12", "Potency": "inconclusive: 15.8 µM [activator, partial curve]"}, {"smiles": "CCOP(=S)(OCC)Oc1ccc([N+](=O)[O-])cc1", "Potency": "inconclusive: 10 µM [activator, partial curve, poor fit] and inconclusive: 1.58 µM [activator, full curve, poor fit]"}, {"smiles": "O=C(O)Cc1cnc[nH]1", "Potency": "inconclusive: 39.8 µM [activator, partial curve, poor fit]"}, {"smiles": "Cc1nnc2n1-c1ccc(Br)cc1C(c1ccccc1Cl)=NC2", "Potency": "inconclusive: 3.98 µM [activator, partial curve]"}, {"smiles": "COCCOC(=O)c1c(N)n(Cc2ccccc2)c2nc3ccccc3nc12", "Potency": "active: 15.8 µM"}, {"smiles": "CCc1nnc(NC(=O)CCc2nc(C3=CCN(C)CC3)no2)s1", "Potency": "inconclusive: 25.1 µM [activator, single point]"}, {"smiles": "CCCn1c(C)c(C(=O)c2cccc3ccccc23)c2ccccc21", "Potency": "active: 12.6 µM"}, {"smiles": "COc1ccccc1OCCCn1cc(C(=O)c2ccco2)c2ccccc21", "Potency": "active: 31.6 µM"}, {"smiles": "CN(C)P(=NC(=S)c1cccn1C)(N(C)C)N(C)C", "Potency": "inconclusive: 7.94 µM [activator, single point]"}, {"smiles": "CCOC(=O)N(C)c1ccc(C(O)(C(=O)OCC)C(F)(F)F)cc1", "note": "(configuration not stated)", "Potency": "inconclusive: 7.94 µM [activator, full curve]"}, {"smiles": "Nc1c(Br)cc(Br)cc1CNC1CCC(O)CC1", "note": "(configuration not stated)", "Potency": "inconclusive: 10 µM [activator, partial curve]"}, {"smiles": "c1ccc(N2CC3(CCNCC3)C2)cc1", "Potency": "active: 10 µM"}, {"smiles": "CCOP(=S)(OCC)Oc1nc(Cl)c(Cl)cc1Cl", "Potency": "inconclusive: 31.6 µM [activator, single point]"}, {"smiles": "CN=C=O", "Potency": "inconclusive: 0.0251 µM [activator, full curve, poor fit]"}, {"smiles": "CCCN1CCO[C@@H]2c3cc(O)ccc3OC[C@H]21", "Potency": "inconclusive: 5.01 µM [activator, single point]"}, {"smiles": "CCN(CC)S(=O)(=O)c1ccc(N=Cc2c(O)n(-c3ccccc3)c(=O)[nH]c2=O)cc1", "Potency": "inconclusive: 31.6 µM [activator, single point]"}, {"smiles": "CN(C(=O)Cc1ccccc1)[C@H](CN1CCCC1)c1ccccc1", "Potency": "active: 31.6 µM"}, {"smiles": "COc1ccc(CCN)cc1O", "Potency": "inconclusive: 6.31 µM [activator, single point]"}, {"smiles": "ClC1=CCC2CN(CCN3CCCCC3)CC2C1", "note": "(configuration not stated)", "Potency": "inconclusive: 39.8 µM [activator, single point]"}, {"smiles": "O=C(O)c1cc2ccccc2oc1=O", "Potency": "active: 20 µM"}, {"smiles": "CC(C)N[C@@H](C)Cc1ccc(I)cc1", "Potency": "inactive"}, {"smiles": "CC(C)N(CC[C@@](C(N)=O)(c1ccccc1)c1ccccn1)C(C)C", "Potency": "inconclusive: 3.98 µM [activator, single point]"}, {"smiles": "CC(C)CC(C)N", "note": "(configuration not stated)", "Potency": "inconclusive: 25.1 µM [activator, single point]"}, {"smiles": "CCSc1nnc([C@@H](N)Cc2c[nH]c3ccccc23)o1", "Potency": "inconclusive: 10 µM [activator, partial curve]"}, {"smiles": "CN(C)C(=O)Oc1ccc(Cl)c2ccccc12", "Potency": "inconclusive: 31.6 µM [activator, single point]"}, {"smiles": "COc1ccccc1N=C1SCCCN1C", "Potency": "inconclusive: 6.31 µM [activator, single point]"}, {"smiles": "COc1ccc2c(c1)[C@]13CCCC[C@@H]1[C@H](C2)NCC3", "Potency": "inconclusive: 1 µM [activator, full curve]"}, {"smiles": "CCCCCCN=C(C)c1c(O)n(CCCC)c(=O)[nH]c1=O", "Potency": "inconclusive: 7.94 µM [activator, partial curve]"}, {"smiles": "CCn1cnc2c(Nc3cccc(Cl)c3)nc(N[C@@H]3CCCC[C@H]3N)nc21", "Potency": "inconclusive: 15.8 µM [activator, partial curve]"}, {"smiles": "BrCCBr", "Potency": "inconclusive: 39.8 µM [activator, single point]"}, {"smiles": "NC1CCCCC1N=Cc1c(O)n(CCc2ccc(F)cc2)c(=O)[nH]c1=O", "note": "(configuration not stated)", "Potency": "inconclusive: 39.8 µM [activator, single point]"}, {"smiles": "C[C@@H](Cc1cccc(C(F)(F)F)c1)NCCCc1ccccc1", "Potency": "active: 39.8 µM"}, {"smiles": "CC1CCCCN1CC(=O)c1ccc2cc[nH]c2c1", "note": "(configuration not stated)", "Potency": "inactive"}, {"smiles": "N#CC(Br)Br", "Potency": "inactive"}, {"smiles": "COc1ccc(C(c2ccc(OC)cc2)C(Cl)(Cl)Cl)cc1", "Potency": "inconclusive: 39.8 µM [activator, single point]"}, {"smiles": "O=C(Oc1ccccc1)N1CCC2(CCCN(Cc3ccccc3)C2)CC1", "Potency": "inconclusive: 3.16 µM [activator, full curve]"}, {"smiles": "O=P(c1ccccc1)(c1ccccc1)N1CC2(CC2)CC(O)(c2ccccc2)C1", "note": "(configuration not stated)", "Potency": "active: 0.794 µM"}, {"smiles": "CCOC(=O)c1c(C)n(Cc2ccccc2)c2ccc(OCC(O)Cn3nc(C)nc3C)cc12", "note": "(configuration not stated)", "Potency": "inconclusive: 25.1 µM [activator, single point]"}, {"smiles": "CC(C)(C)NC[C@H](O)c1cc(Cl)c(N)c(Cl)c1", "Potency": "inconclusive: 0.0126 µM [activator, full curve, poor fit]"}, {"smiles": "COc1cc2c(cc1O)CCN[C@H]2C", "Potency": "inactive"}, {"smiles": "O=C(OCC#CCSc1nnc(-c2ccccc2)o1)c1ccco1", "Potency": "inconclusive: 15.8 µM [activator, partial curve, poor fit]"}, {"smiles": "O.O.[NH-]C1(C(=O)O)CCCC1.[NH-]C1(C(=O)O)CCCC1.[Ni+2]", "activation": "inactive: 13% [at 11.4 µM]"}, {"smiles": "COc1cc(OC)c(OC)cc1C=O", "Potency": "inconclusive: 39.8 µM [activator, single point]"}, {"smiles": "CCCCOC(=O)COc1cc(C)cc2oc(=O)c3c(c12)CCC3", "Potency": "inactive"}, {"smiles": "COc1ccc(CCNC(=O)c2c(N)n(CCN3CCOCC3)c3nc4ccccc4nc23)cc1", "Potency": "inactive"}, {"smiles": "Clc1ccc(C(c2ccc(Cl)cc2)C(Cl)(Cl)Cl)cc1", "Potency": "inconclusive: 0.02 µM [activator, full curve, poor fit]"}, {"smiles": "C=CCSC1=N/C(=C\\c2cc(OC)c3c(c2)OCO3)C(=O)S1", "Potency": "inconclusive: 3.98 µM [activator, partial curve]"}, {"smiles": "Nc1cccc2ccccc12", "Potency": "inconclusive: 39.8 µM [activator, single point]"}, {"smiles": "CCOP(=S)(OCC)c1ccc(N(C)C)cc1", "Potency": "inconclusive: 1.26 µM [activator, full curve]"}, {"smiles": "COC(=O)C(O)(c1ccc(N(C)S(=O)(=O)c2ccccc2)cc1)C(F)(F)F", "note": "(configuration not stated)", "Potency": "inconclusive: 6.31 µM [activator, single point]"}, {"smiles": "O=C(Nc1cccc(OC(=O)N2CCOCC2)c1)N1CCOCC1", "Potency": "inactive"}, {"smiles": "O=C1NCN(c2ccccc2)C12CCN(C[C@H]1COc3ccccc3O1)CC2", "Potency": "inactive and inconclusive: 20 µM [activator, single point]"}, {"smiles": "COC(=O)[C@H]1C[C@@H]1[C@H](NP(=O)(c1ccccc1)c1ccccc1)c1ccccc1", "Potency": "active: 2.51 µM and active: 501 nM"}, {"smiles": "O=C1CSC2N1CCNC21CCCCC1", "note": "(configuration not stated)", "Potency": "inactive"}, {"smiles": "CCCCn1c(O)c(C(C)=NC(Cc2c[nH]c3ccccc23)C(=O)OC)c(=O)[nH]c1=O", "note": "(configuration not stated)", "Potency": "inconclusive: 31.6 µM [activator, single point]"}, {"smiles": "CCCCCC[C@H]1C(=O)O[C@H](C)[C@H](NC(=O)c2cccc(NC=O)c2O)C(=O)O[C@@H](C)[C@H]1OC(=O)CC(C)C", "Potency": "inconclusive: 0.794 µM [activator, full curve]"}, {"smiles": "O=C1C(Cl)=C(Cl)C(=O)C(Cl)=C1Cl", "Potency": "inconclusive: 39.8 µM [activator, single point]"}, {"smiles": "O=C(Nc1cccc(F)c1)N1CC[C@@]2(CCCN(C(=O)Oc3ccccc3)C2)C1", "Potency": "inconclusive: 5.01 µM [activator, full curve]"}, {"smiles": "CCCc1cc2c(n1Cc1cccc(Cl)c1)C(C)C1CN(C(=O)c3ccccc3)C(C)(C(=O)OC)C21", "note": "(configuration not stated)", "Potency": "inconclusive: 3.16 µM [activator, full curve]"}, {"smiles": "CCOC(=O)c1c(N)n(Cc2ccc(OC)cc2)c2nc3ccccc3nc12", "Potency": "inactive"}, {"smiles": "N#CC(C#N)=NNc1ccc(OC(F)(F)F)cc1", "Potency": "active: 0.631 µM"}, {"smiles": "CCOP1(=S)Oc2cc3c(cc2C(C(=O)OC)(C(F)(F)F)O1)OCO3", "note": "(configuration not stated)", "Potency": "inconclusive: 6.31 µM [activator, single point]"}, {"smiles": "CN(C)c1ccc(N)cc1", "Potency": "inactive"}, {"smiles": "Nc1cccc(C(F)(F)F)c1", "Potency": "inconclusive: 0.126 µM [activator, full curve, poor fit]"}, {"smiles": "Nc1ccccc1C(=O)OCCc1ccccc1", "Potency": "inconclusive: 39.8 µM [activator, single point]"}, {"smiles": "C=CCN1C[C@H](C)N([C@@H](c2ccccc2)c2ccc(C(=O)N(CC)CC)cc2)C[C@H]1C", "Potency": "inactive"}, {"smiles": "c1ccc2sc(C3(N4CCCCC4)CCCCC3)cc2c1", "Potency": "inconclusive: 6.31 µM [activator, single point] and inconclusive: 31.6 µM [activator, partial curve, poor fit]"}, {"smiles": "N#C/C(=C\\c1ccc(O)c(O)c1)C(N)=S", "Potency": "inactive and inconclusive: 7.94 µM [activator, single point]"}, {"smiles": "CCCCn1c(O)c(C(CC)=Nc2cccc(C(=O)O)c2)c(=O)[nH]c1=O", "Potency": "inconclusive: 6.31 µM [activator, single point]"}, {"smiles": "O=C1C2(Cl)C3(Cl)C4(Cl)C(Cl)(Cl)C5(Cl)C3(Cl)C1(Cl)C5(Cl)C24Cl", "note": "(configuration not stated)", "Potency": "inactive"}, {"smiles": "C=CCBr", "Potency": "inconclusive: 39.8 µM [activator, single point]"}]}]}
